Test results reported in PubChem BioAssay AID485281 (National Center for Advancing Translational Sciences (NCATS), 2010).
The campaign covered roughly 350,000 compounds. About 260 (0.074%) were called active. Inconclusive means that the source gave no clear call. Such entries were picked first, then a sample of the others. Calls follow the shape of the dose curve; as a rule, active = well fitted inhibition curve with a large enough effect; inconclusive = small, poorly fitted or top-dose-only effect; inactive = no such curve, though single readings can be large or run the other way. A potency beside an inconclusive call is a rough fit, not a confirmed value.

Target: Ferritin light chain (Equus caballus) (UniProt P02791)
UniProt P02791, sequence (P02791 whole entry, looked up): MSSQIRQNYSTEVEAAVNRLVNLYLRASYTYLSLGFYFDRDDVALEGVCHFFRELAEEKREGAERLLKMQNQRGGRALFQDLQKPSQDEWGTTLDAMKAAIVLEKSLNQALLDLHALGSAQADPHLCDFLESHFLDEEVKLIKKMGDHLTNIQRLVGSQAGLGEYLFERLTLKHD
Experiment: qHTS Assay for Identification of Novel General Anesthetics; also: nearly all actives have a fitted effect of over 20% in size
Settings: apoferritin/1-aminoanthracene competitive binding, fluorescence; series mostly up to 77.5 µM
Method in brief: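 Apoferritin-based anesthetic binding model; compound displacement of fluorescent 1-AMA measured as endpoint fluorescence after 10 minutes at room temperature, scaled to free-ligand and complex controls.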
Potency is read from the fitted curve at half-maximal effect; tags tell the direction and shape of the fitted curve.

Potency, inactive:
O=C1NC(=Nc2ccccc2)SC1Cc1ccccc1 (stereo not drawn)
CC(=O)Nc1ccc(N/C(N)=N/c2nc(C)cc(C)n2)cc1
CCOc1ccccc1CN1CCN(S(=O)(=O)CC)CC1
COc1ccc(N2C(=O)c3ccccc3NC2c2ccc(OC)c(Cn3nnc4ccccc43)c2)cc1 (stereo not drawn)
O=C(c1ccc(Cl)cc1)c1cc([N+](=O)[O-])ccc1N1CCOCC1
Cc1cc(C)n(-c2ccc(C(=O)OCc3nnc(-c4ccccc4)o3)cc2)n1
Cc1c(NC2=C(Cl)C(=O)N(c3ccccc3Cl)C2=O)c(=O)n(-c2ccccc2)n1C
COc1ccc(CC(=O)N/N=C(\C)c2cccnc2)cc1
O=C(CCN1CCc2ccccc2C1)Nc1ccc(F)c(F)c1
COc1ccc(OC)c(S(=O)(=O)N2CCN(CC(O)COc3ccccc3)CC2)c1 (stereo not drawn)
Cc1ccc(S(=O)(=O)CCSc2nc(C)cc(C)c2C#N)cc1
CN(C)CCOc1cccc(Cl)c1
COc1ccccc1N1CCN(C(=O)c2oc3cc(C)cc(C)c3c2C)CC1
O=c1c2cc(N3CCOCC3)ccc2[nH]c(=S)n1CCCN1CCN(c2ccccc2F)CC1
C=C(C)CN(CC)c1nc(N)c2c(N)nc3c(c2c1C#N)CC(=O)N3C12CC3CC(CC(C3)C1)C2
Cc1ccc(NC(=O)Cn2c(-c3ccc4c(c3)OCO4)cn(-c3ccccc3)c2=O)cc1
Cc1ccc(S(=O)(=O)Nc2cc3c(cc2N2CCOCC2)n(C)c(=O)n3C)c(C)c1
CCOc1ccccc1N(C)C(=O)C1CCCN(c2ncnc3onc(-c4ccc(F)cc4)c23)C1 (stereo not drawn)
CCNC(=S)N/N=C(\C)c1ccc(Cl)s1

Potency, inconclusive:
O=C(NCC(c1cccnc1)N1CCc2ccccc21)c1ccc(F)c(F)c1 (stereo not drawn) 7.94 µM [inhibitor, partial curve]
CCOC(=O)/C(C(N)=NCc1ccco1)=C(/O)c1ccccc1 25.1 µM [inhibitor, single point]
COc1ccc(SCC(=O)c2cc(C)c(OC(=S)N(C)C)c(C)c2)cc1 14.1 µM [inhibitor, partial curve]
Clc1ccc(-c2nc(NCCN3CCOCC3)c3ccccc3n2)cc1 22.4 µM [inhibitor, partial curve]
CCCn1c(=O)c2ccccc2n2c(SCC(=O)c3ccccc3)nnc12 15.8 µM [inhibitor, partial curve]
Cc1cc2ncn(CCC(=O)NC(C)(C)C)c2cc1C 6.31 µM [inhibitor, full curve]
COc1ccc(NC(=O)CC23CC4CC(CC(Br)(C4)C2)C3)c(OC)c1 28.2 µM [inhibitor, single point]
Cc1oc(-c2ccccc2F)nc1CS(=O)(=O)CC(=O)NCc1ccccc1Cl 20 µM [inhibitor, partial curve]
CCCCCc1cc(=O)oc2c(C(CCN3CCCC(C)C3)c3cc(OC)c(OC)c(OC)c3)c(OC)cc(OC)c12 (stereo not drawn) 12.6 µM [inhibitor, partial curve]
Cc1ccc(C)c(NC(=S)NNC(=O)c2csc(C(C)C)c2)c1 56.2 µM [inhibitor, single point]
COc1ccc(C2C(C(C)=O)=C(C)N=c3s/c(=C\c4cc(C)n(C)c4C)c(=O)n32)c(OC)c1 (stereo not drawn) 35.5 µM [inhibitor, partial curve]
COc1ccc(-n2c(C)cc(C(=O)NC3CCCCC3)c2C)cc1 22.4 µM [inhibitor, single point]
COC(=O)c1cc(S(=O)(=O)NCCc2ccc(C)cc2)c[nH]1 44.7 µM [inhibitor, single point]
CCOC(=O)c1c(C)[nH]c(C)c1S(=O)(=O)N1CCC(C(=O)N2CCN(c3cccc(C)c3C)CC2)CC1 17.8 µM [inhibitor, partial curve]
O=[N+]([O-])CC(c1ccc(F)cc1)c1c[nH]c2ccccc12 (stereo not drawn) 31.6 µM [inhibitor, single point]
Cc1ccc(O)c(-c2cc(-c3ccccc3[N+](=O)[O-])[nH]n2)c1 10 µM [inhibitor, partial curve]
CC(=O)Nc1ccc(S(=O)(=O)NCC(=O)OCC(=O)c2cc(C)n(-c3ccc4c(c3)OCO4)c2C)cc1 14.1 µM [inhibitor, partial curve]
Cn1cccc1C(=O)NCCc1ccc(Cl)cc1 22.4 µM [inhibitor, partial curve]
COc1ccc(CCNC(=O)c2cc(=O)c3cc(C)cc(C)c3o2)cc1OC 28.2 µM [inhibitor, partial curve]
COc1ccccc1OCC(=O)N/N=C/c1cccc2cccnc12 25.1 µM [inhibitor, single point]
CS(=O)(=O)N(CC(=O)N/N=C/c1ccccn1)c1ccc(Oc2ccccc2)cc1 44.7 µM [inhibitor, single point]
Cc1ccc(C(C2=C(O)CC(C)(C)CC2=O)C2C(=O)CC(C)(C)CC2=O)o1 (stereo not drawn) 25.1 µM [inhibitor, partial curve]
CC(=O)N(CC(C)(C)CC=C(C)C)c1ccccc1 44.7 µM [inhibitor, partial curve]
COc1cc(OC)cc(C(=O)N(CCCN2C(=O)c3cccc4cccc(c34)C2=O)c2cccc(OC)c2)c1 7.94 µM [inhibitor, partial curve]
CCCc1cc(=O)[nH]c(SCc2cc(Cl)ccc2OC(F)F)n1 35.5 µM [inhibitor, partial curve]
O=C(NCc1ccccc1F)c1ccc2c(c1)OCCO2 39.8 µM [inhibitor, single point]
S=C(c1ccc2c(c1)OCO2)N1CCCCC1 35.5 µM [inhibitor, partial curve]
O=C(OCn1nnc2ccccc2c1=O)c1ccc2c(=O)n3c(nc2c1)CCC3 11.2 µM [inhibitor, partial curve]
COc1ccc(OCCn2nnc3sc4c(c3c2=O)CCC(C(C)(C)C)C4)cc1 (stereo not drawn) 10 µM [inhibitor, partial curve, poor fit]
Cc1ccc(S(=O)(=O)c2c(C)cc(C)nc2Oc2cccc(C)c2C)cc1 3.98 µM [inhibitor, single point]
O=C1/C(=C/c2ccc(O)c(O)c2)SC(=S)N1Nc1ccccc1 31.6 µM [inhibitor, partial curve]
CC1=C([N+](=O)[O-])C(c2ccccc2Cl)NC(=O)N1C (stereo not drawn) 35.5 µM [inhibitor, partial curve]
CCCSc1nc(C)c(-c2csc(C(C#N)=C3CCCC3)n2)cc1C#N 15.8 µM [inhibitor, partial curve]
COc1cc2c(cc1NC(=O)COC(=O)CNC(=O)c1ccccc1)oc1ccccc12 7.08 µM [inhibitor, full curve]
COc1cccc(C(=O)CSc2nnnn2C)c1 17.8 µM [inhibitor, partial curve]
COc1cc(CNCCO)cc(Br)c1OCc1ccccc1Cl 39.8 µM [inhibitor, partial curve]
O=C(CSC1=NCCS1)Nc1ccccc1F 25.1 µM [inhibitor, partial curve]
CCOc1ccccc1NC(=O)CC1Nc2ccccc2NC1=O (stereo not drawn) 0.794 µM [inhibitor, full curve, poor fit]
Cc1ccc(Nc2nc(C(=O)NCc3ccco3)cs2)cc1 22.4 µM [inhibitor, partial curve]
CCOC(=O)c1c(NC(=O)Cc2cccs2)sc(C)c1C 22.4 µM [inhibitor, partial curve]
Cc1ccc(CSc2nc(=O)c3c(n2C)NC(=O)CC3c2ccc(OC(C)C)cc2)cc1 (stereo not drawn) 10 µM [inhibitor, partial curve]
OCCNCc1ccc(OCc2ccc(Cl)cc2Cl)cc1 11.2 µM [inhibitor, partial curve]
Cc1c(C(=O)c2ccc(Cl)cc2[N+](=O)[O-])c2ccccn2c1CCC#N 44.7 µM [inhibitor, single point]
COC(=O)c1sccc1Oc1ccc(F)cc1[N+](=O)[O-] 28.2 µM [inhibitor, partial curve]
O=C(CN1C(=O)NC2(CCCCC2)C1=O)Nc1ccccc1Cl 17.8 µM [inhibitor, partial curve]
CCOc1ccc(-c2cnc(NCc3ccc(OC)cc3OC)n2C)cc1 39.8 µM [inhibitor, single point]
CCN(CC)C(=O)Oc1ccc2c(=O)c(-c3ccc(OC)cc3)c(C)oc2c1 28.2 µM [inhibitor, partial curve]
S=c1nc(SCc2ccccc2)[nH]c2ccccc12 8.91 µM [inhibitor, partial curve]
CC1=CC(C)(C)Nc2ccc(OC(=O)C(Cc3ccccc3)N3C(=O)c4ccccc4C3=O)cc21 (stereo not drawn) 5.01 µM [inhibitor, partial curve]
